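Assay format: 96-well plates, 48-hour exposure. The concentration for 50% growth inhibition is given as GI50.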 The source made the active and inactive calls. Rule as the data show it: active = GI50 up to about 1.1 µM and inactive = higher.

This assay has as its system NCI-H322M. The assay can be described thus: NCI tumour cell line growth inhibition, 48 h.
For the molecule `COc1cc(-c2cc(O)c3cc4c(cc3n2)OCO4)cc(OC)c1OC`, the GI50 was inactive: 43.2 µM. As for `CCCCCN(CCCCC)C(=O)[C@H](CCC(=O)O)NC(=O)c1cc2ccccc2[nH]1`, the GI50 is inactive: 44.5 µM. For `Cc1[nH]c2ccccc2c1/C=C/c1c(C)[nH]c2ccccc12` the value was inactive: > 100 µM. In the case of `CN(C)CCNC(=O)c1cccc(NC(=O)c2ccccc2)c1[N+](=O)[O-]`, the GI50 is inactive: 67.5 µM. Consider `COC(NC(=O)Nc1ccc(C)cc1)(C(F)(F)F)C(F)(F)F`, for which the GI50 was inactive: 45.1 µM. With `O=C(O)CCC(NC(=O)c1ccc(Nc2nc3ccc(C(F)(F)F)cc3nc2-c2ccccc2)cc1)C(=O)O` (centres undefined), the GI50 was inactive: > 100 µM. For `Cc1cccc(Nc2nc(NNC(=O)Cc3ccccc3)nc(NNC(=O)c3ccncc3)n2)c1` the value was inactive: > 10 µM; for `COC(=O)C1=C(O)CCCC(C2CCCCC(=O)C2C(=O)OC)=C1` (centres undefined), inactive: 79.1 µM; for `Cc1nc2ccccc2n1Cc1nnc(N)o1`, inactive: > 100 µM.

Take `O=C(CCn1[nH]c(=O)c(Cl)c(Cl)c1=O)NOCCCc1ccccc1`: the GI50 is inactive: > 100 µM. For the molecule `C1=Cc2cccc3occ(c23)C=C1`, the GI50 is inactive: > 100 µM. For `NNc1[nH]c(=S)[nH]c1C(N)=O` the value was inactive: > 100 µM. For `O=C1c2cc3ccccc3cc2C2(c3ccc(Cl)cc3)NCCN12` (centres undefined) the value was inactive: 35.1 µM; for `c1ccc(CSc2nc(N3CCOCC3)c3cn[nH]c3n2)cc1`, inactive: 30.4 µM; for `CC(C)=CCC[C@H](C)[C@H]1CC[C@@H](C)c2cc(O)c(C)cc21`, inactive: 17.4 µM. With `CCCCCCSc1nc(COC(=O)NC)c(COC(=O)NC)n1C`, the GI50 is inactive: > 100 µM.

Take `Cc1ccc(S(=O)(=O)SC(C)(C)C)cc1`: the GI50 was inactive: > 100 µM. As for `O=C(O)\C=C/C=C/C=C/C=C/C(=O)O`, the GI50 is inactive: > 100 µM. For `Cc1ccc2c(c1)-c1c(C#N)c(N)nc(-c3ccc(Cl)cc3)c1CCS2(=O)=O` the value was inactive: 23.1 µM; for `O=c1cc2ccccc2nn1Cc1ccccc1Cl`, inactive: 56.5 µM; for `N#Cc1c(Cl)cccc1Oc1ccc(S(=O)(=O)/N=C(\NN)Nc2ccc(Cl)cc2)cc1`, inactive: 32.4 µM. On to `N#Cc1ccsc1Nc1ccccc1[N+](=O)[O-]`, for which the GI50 is inactive: > 100 µM.

`N#Cc1nc(COCc2ccccc2)oc1N`: the GI50 was inactive: > 100 µM.

`CC(=O)/C(=C/n1c(=S)[nH]c2ccccc21)C(=O)Nc1ccccc1C`: the GI50 was inactive: > 100 µM. On to `CSc1cc(Br)ccc1-n1c(C(=O)c2ccccc2)c(SC)n(-c2ccccc2)c1=O`, for which the GI50 was inactive: > 100 µM. Regarding `O=C1Nc2ccccc2Nc2nc3cccccc-3c21`, the GI50 is inactive: > 100 µM. For `CCOC(=O)C1=C(C)N(c2ccc(OC)cc2)C2(O)C=CC(O)=C3C(=O)c4ccccc4C(=O)C312` (centres undefined) the value was inactive: 17 µM.

Turning to `C=CCCON(C(=O)OC(C)(C)C)c1ccccc1`, the GI50 is inactive: 52.2 µM.

For the molecule `O=C1C=CC(=O)c2c1cc([N+](=O)[O-])c1ccoc21`, the GI50 is inactive: 22.9 µM.

As for `NC(=S)NS(=O)(=O)c1ccc(Cl)cc1`, the GI50 was inactive: > 100 µM. The value for `Cc1ccc(C(=O)N/N=C2/C(=O)c3c4ccccc4cc4cccc2c34)cc1` was inactive: > 73.5 µM; that for `COC(=O)/C=C1/N=C(N(C)/N=C/c2ccccc2)NC1=O` was inactive: > 100 µM; that for `COC(=O)C1(c2ccc(N(C)C)cc2OC)CCCN(C(=O)Oc2ccccc2[N+](=O)[O-])CCc2c1[nH]c1ccccc21` (centres undefined) was inactive: > 100 µM.

In the case of `Clc1ccccc1CN1COc2c(ccc3cccnc23)C1`, the GI50 is inactive: 4.24 µM. For the molecule `COc1ccc2nc3c([N+](=O)[O-])ccc(NCCCN(C)C)c3c(N)c2c1`, the GI50 is inactive: 1.39 µM. For `CCOC(=O)c1nc2cc(F)c(N3CCOCC3)cc2[nH]c1=O` the value was inactive: > 100 µM.

`COc1ccc(NC(=O)C(=O)NNC(=O)c2sc(NNC(C)=O)nc2C)c([N+](=O)[O-])c1`: the GI50 is inactive: > 100 µM. With `Nc1nc(NC2C=C(CO)C(O)C2O)c([N+](=O)[O-])c(=O)[nH]1` (centres undefined), the GI50 was inactive: > 100 µM. For `CC(C)CCc1n[nH]c(=O)n1/N=C\c1ccccc1` the value was inactive: > 100 µM; for `CCN(CC)Cc1c(/C=C\c2cc(OC)c(OC)c(OC)c2)ccc(OC)c1O`, inactive: 4.61 µM; for `O=C1CCCC2=C1CC1=C(CCCC1=O)N2c1cccc([N+](=O)[O-])c1`, inactive: > 100 µM. For `CCCCCCCCCCCCC/C=C/[C@H]1[C@@H](C(=O)OC)N1[S+]([O-])c1ccc(C)cc1` (some centres undefined) the value was inactive: > 100 µM; for `CC(=O)O[C@H]1C[C@H]2C(=S)Nc3ccccc3C(=S)N2C1`, inactive: > 100 µM.

On to `COc1ccc(NC(=S)N/N=C/c2cccc(C)n2)cc1`, for which the GI50 was inactive: 11.9 µM. The value for `CCOc1ccccc1NC(=O)C1=C(C)NC(C)=C(C(=O)Nc2ccccc2OCC)C1c1ccc(NC(C)=O)cc1` was inactive: 46.9 µM; that for `Cc1n[nH]c(N)c1C(N)=O` was inactive: > 100 µM; that for `COC1CC(OC2CCC3(C)C(=CCC4C3C(OC(C)=O)C(OC(=O)CC(C)C)C3(C)C(C(C)=O)CCC43O)C2)OC(C)C1OC1CC(OC)C(OC2CC(OC)C(OC3OC(C)C(OC4OC(CO)C(O)C(O)C4O)C(OC)C3O)C(C)O2)C(C)O1` (centres undefined) was inactive: > 75 µM. Consider `Cc1cc(O)nc(NNC(C#N)c2ccc(O)cc2)n1` (centres undefined), for which the GI50 was inactive: > 100 µM.

With `CC1(C)OC[C@@H]([C@H](C=O)OCc2ccccc2)O1`, the GI50 is inactive: > 100 µM.

As for `CC(=C/c1ccccc1)/C=C1/NC(=S)N(/C=C2\C(=O)Oc3ccccc3C2=O)C1=O`, the GI50 is inactive: 59.4 µM.

As to `O=C1C(=O)N(c2cc(Cl)ccc2Cl)C(=O)C(=O)C1c1nc2ccccc2s1`, the GI50 is inactive: 45 µM. With `Cc1ccc(N/N=C2\C3=C(CCC(C)(C)O3)C(=O)c3ccccc32)cc1`, the GI50 was inactive: 17.7 µM.

Take `NCc1ccc(-c2ccc(-c3ccc(-c4ccc(CN)s4)s3)s2)s1`: the GI50 was inactive: > 100 µM. Turning to `Cc1ccc(S(=O)(=O)/N=C(\NN)Nc2ccc(Cl)cc2)cc1`, the GI50 is inactive: > 100 µM. For `COc1cc(C=O)cc(/C=N/c2ccc(S(N)(=O)=O)cc2)c1O` the value was inactive: 17.5 µM; for `O=c1cc(-c2ccccc2)[nH]c2cc(F)c(F)cc12`, active: 0.455 µM; for `O=S1(=O)OCCOS(=O)(=O)C1Cl`, inactive: > 100 µM.

Take `CCN(c1ccc(Br)cc1)c1c(Br)c(=O)nc2ccccn12`: the GI50 was inactive: > 100 µM.

Consider `C[N+](C)(C)CC(=O)NC(=O)N/N=C\C(CC#N)CN(Cc1ccccc1)Cc1ccccc1` (centres undefined), for which the GI50 was inactive: > 100 µM. For `Clc1nc(Cl)c(Cl)c(Cl)n1` the value was inactive: 17.1 µM.

On to `c1cc2nnc1SCCCSc1ccc(nn1)SCCCSc1ccc(nn1)SCCCS2`, for which the GI50 was inactive: > 100 µM.

In the case of `CCOC(=O)CCC1(C(=O)OCC)CCCCC1=O` (centres undefined), the GI50 is inactive: > 100 µM. For `CC(O)C1CC1(CO)CNc1cc(Cl)nc(N)n1` (centres undefined) the value was inactive: > 100 µM; for `O=c1[nH]c(=O)n(CCOc2ccc(Cl)cc2)cc1Nc1ccccc1`, inactive: > 100 µM. For the molecule `O=c1[nH]c2c(c(=O)[nH]1)SSC2`, the GI50 was inactive: 15.5 µM. In the case of `Cc1cc([N+](=O)[O-])ccc1Nc1cccc(Cl)c1C`, the GI50 was inactive: 16 µM. For `[O-][N+]1=C2CCC/C(=N/O)C2(O)C2CCCCC21N1CCOCC1` (centres undefined) the value was inactive: > 100 µM; for `CCC(Sc1cc(Cl)c(C)cc1S(=O)(=O)Nc1nc(N)nc(N(C)C)n1)C(=O)O` (centres undefined), inactive: > 10 µM.

On to `O=C1CSC(c2cc3cc(Br)ccc3nc2Cl)N1c1ccc(Cl)cc1` (centres undefined), for which the GI50 is inactive: 44.2 µM. On to `O=c1c2ccccc2c(=O)c2c1cc(Cl)c1[nH]c3c([nH]c12)c(Cl)cc1c(=O)c2ccccc2c(=O)c13`, for which the GI50 was inactive: > 100 µM. For `COc1cccc2c1OCC1Cc3ccccc3OC21` (centres undefined) the value was inactive: 71.9 µM. `O=C(O)c1ccccc1/C=C1\Cc2ccccc2C1=O`: the GI50 was inactive: > 100 µM. The value for `[O-]/[N+](=C\c1ccccc1OC(=S)S)c1ccc(Cl)cc1` was inactive: 80.9 µM; that for `CCC[C@H](C)[C@H]1NC(=O)[C@@H](NC(=O)[C@@H](CC(C)C)N(C)C(=O)C2CCCN2C(=O)[C@H](C)O)[C@@H](C)OC(=O)[C@H](CC(C)C)N(C)C(=O)[C@@H]2CCCN2C(=O)[C@H](CC(C)C)NC(=O)[C@@H](C)C(=O)[C@H](C(C)C)OC(=O)C[C@@H]1O` (some centres undefined) was active: < 0.0025 µM. For `FC(F)(F)c1ccc2c(c1)nc(Cc1ccc(Cl)cc1)n2CC1CCCN2CCCCC12` (centres undefined) the value was inactive: 12.4 µM; for `CC(=O)OC1CC[C@]2(C)C3CC[C@@]4(C)C(CCC4[C@H](C)CCCC(C)C)[C@@H]3CCC2(Br)C1` (some centres undefined), inactive: 42.7 µM. In the case of `CC(=O)O[C@H]1CSC[C@@H](OC(C)=O)C1[N+](=O)[O-]` (some centres undefined), the GI50 is inactive: > 100 µM.

As to `C=C1CC[C@@H]2C(C)(C)C(O)CCC2(C)C1COc1ccc2ccc(=O)oc2c1` (some centres undefined), the GI50 is inactive: 17 µM. For `COc1ccc(-c2cc(O)c3c(C)cc(C)nc3n2)cc1` the value was inactive: 31.3 µM; for `COC1OCC(O)C(NC(=O)N(C)N=O)C1O` (centres undefined), inactive: > 100 µM; for `O=C(O)c1c(Cl)c(Cl)c(Cl)c(Cl)c1C(=O)Nc1ccc2cn[nH]c2c1`, inactive: > 100 µM.

In the case of `Cc1c2ccncc2c(C)c2c1[nH]c1ccc(Oc3ccccc3)cc12`, the GI50 was inactive: 7.41 µM.

With `O=C(/C=C/c1ccccc1)Oc1ccc(C(=O)/C=C/c2ccccc2)cc1`, the GI50 was inactive: 13.5 µM. The value for `O=c1c(Cc2ccc(Cc3c(O)oc4ccccc4c3=O)cc2)c(O)oc2ccccc12` was inactive: > 100 µM.

For the origin of these results see ChEMBL document CHEMBL1201862, “PubChem BioAssay data set” (2004).
